± gives the standard deviation. The entries are a selection whose mix differs from that of the whole data set.
system: MIWI (PIWIL1) piRISC loaded with L1MC piRNA (30 nt); experiment: pre-steady-state target cleavage rate (min^-1); MIWI and MILI are mouse PIWI proteins and EfPiwi is from a freshwater sponge; tags in brackets are library labels; higher = faster piRNA-guided slicing of the target; settings: guide: L1MC piRNA 5'p-UAACUAAAUACUAUGCAAGCUGUAGGUCCU; auxiliary factor: 500 nM mouse GTSF1
Experimental: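 Cleave-'n-Seq: a library of target RNAs (target site embedded in constant flanks, ACAGCATTCCGCGTTAGTGATATCCG... 5' flank; DNA-blocked outside the site) at 0.1 nM was incubated with 1 nM active mouse MILI or MIWI piRISC (synthetic 5'-monophosphorylated piRNA guide) with or without 500 nM mouse GTSF1 at 33 °C for 1 min to 16 h. Uncleaved targets were sequenced and normalised to non-target controls, and the pooled three trials were fitted to a burst-and-steady-state model to give the pre-steady-state cleavage rate (min^-1; k3 is constrained to at most 1e-4). Sequence is the target site only; target names encode pairing extent (gX:gY) and contiguous / 1-mismatch / 2-mismatch / bulge geometry. Fits with R² ≤ 0 are excluded.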

Sequence | pre-steady-state target cleavage rate
UCCUGGUACAGCUUGCAUUGUUUUUAGUUA | 0.0471 ± 0.0097
UCCUGGAUGUCGUUGCAUAGUAUUUUGUUA | 0.00862 ± 0.0041
UCCUGCAUCAGCUUGCAUAGUAUUUACAAA | 0.277 ± 0.039
UCGACCUACAGCUUGCUUAGUAUUUAGAAA | 0.422 ± 0.041
UCGACCAUGAGCUUGCAUAGUAUUUUCAAA | 0.0965 ± 0.017
UCCUGGAUGAGCUUGCCUAGUAUUUAGUUA | 0.797 ± 0.041
UCCUGGAUCAGCUUGCAUAGUAUUUAGAUA | 0.33 ± 0.025
UCCUGGAACAGCUUGCAUAGAAUUUAGAUA | 0.245 ± 0.048
AGGACCAUCAGCUUGCAUAGUAUUUAGUUA | 1.3 ± 0.048
AGGACCUACAGCUUGCAUAGUAUUUUGUAA | 0.432 ± 0.052
UCCUGCUAGAGCUAGCAUAGUAUUUAGUUA | 0.589 ± 0.064
UCCUGGAUGUCGAACGUAUGCUAUUUAGUUA | < 0.0001
UCGACCUACAGCUUGCAUAGUAUUUAGAUUA | 0.379 ± 0.023
UCCACCUACUCGUUGCAUAGUAUUUAGUUA | 0.892 ± 0.038
UCCUGGUACAGCUUGCUUAGUAUUUACUUA | 0.28 ± 0.041
UCCUGGAACAGCUUGCAUAGUGUUUAGUUA | 0.474 ± 0.029
UCCACCUACAGCUUGGAUAGUAUUUAGAUA | 0.319 ± 0.042
UGGACGUACAGCUUGCAUAGUAUUUACAAA | 0.209 ± 0.031
UCCUGGUACAGCAUGCAUAGUAUUUUGUUA | 0.315 ± 0.037
UCCUGGUACAGCUUGCAAUGUAUUUAGUAA | 0.0915 ± 0.016
AGGACCUACAGCUUGCAAACUAUUUAGUUA | 0.332 ± 0.023

same assay, conditions: guide: L1MC piRNA 5'p-UAACUAAAUACUAUGCAAGCUGUAGGUCCU; auxiliary factor: none (no GTSF1)

Sequence | pre-steady-state target cleavage rate
UCCUGGUACAGCUUGCAUUGUUUUUAGUUA | 0.0111 ± 0.0034
UCCUGCAUCAGCUUGCAUAGUAUUUACAAA | 0.00345 ± 0.0029
UCGACCUACAGCUUGCUUAGUAUUUAGAAA | 0.00332 ± 0.0022
UCCUGGAUGAGCUUGCCUAGUAUUUAGUUA | 0.0233 ± 0.0052
UCCUGGAUCAGCUUGCAUAGUAUUUAGAUA | 0.0179 ± 0.0048
UCCUGGAACAGCUUGCAUAGAAUUUAGAUA | 0.00865 ± 0.0035
AGGACCAUCAGCUUGCAUAGUAUUUAGUUA | 0.0926 ± 0.017
AGGACCUACAGCUUGCAUAGUAUUUUGUAA | 0.0627 ± 0.015
UCCUGCUAGAGCUAGCAUAGUAUUUAGUUA | 0.00801 ± 0.0027
UCGACCUACAGCUUGCAUAGUAUUUAGAUUA | 0.0342 ± 0.0063
UCCACCUACUCGUUGCAUAGUAUUUAGUUA | 0.0197 ± 0.0042
UCCUGGUACAGCUUGCUUAGUAUUUACUUA | 0.019 ± 0.0045
UCCUGGAACAGCUUGCAUAGUGUUUAGUUA | 0.0552 ± 0.01
UCCACCUACAGCUUGGAUAGUAUUUAGAUA | 0.0137 ± 0.0027
UGGACGUACAGCUUGCAUAGUAUUUACAAA | 0.0087 ± 0.0028
UCCUGGUACAGCAUGCAUAGUAUUUUGUUA | 0.0157 ± 0.0031
UCCUGGUACAGCUUGCAAUGUAUUUAGUAA | 0.00419 ± 0.0022
AGGACCUACAGCUUGCAAACUAUUUAGUUA | 0.00837 ± 0.0028
